Read-outs that look alike come from different tables or passages of the source.
Tested on: zinc in the brain parenchyma
Conditions: 4 days, mice

Oc1c(I)cc(Cl)c2cccnc12 [Clioquinol, reference compound]
zinc staining signal in the central nervous system (10 mg/kg i.p.): Marked decreases
zinc staining signal in the central nervous system (30 mg/kg p.o.): Decreases in the zinc signal

From patent US8513219B2, “Substituted phosphonates and their use in decreasing amyloid aggregates” (Queen Mary & Westfield College, University of London, priority 2007, dated 2013)
